{"source": "the supplement of paper PMC11417369", "note": "± gives the standard deviation of the averaged measurements. The list shows a part of the results."}
{"tested_on": "PfAP2-LT AP2 domain (GST-tagged)", "experiment": "gcPBM binding intensity (ln(normalized median fluorescence intensity)); higher = stronger DNA binding", "procedure,_shortened": "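For binding intensity, the highest Masliner-normalised natural-log median intensity across replicate spots of either probe orientation was taken. Protein bound to the array was stained with Alexa488 anti-GST antibody and scanned at 488 nm. The protein, GST-tagged P. falciparum DNA-binding domains from E. coli at about 25 μg on average, had been applied for 1 h to an Agilent 4 × 180k array of primer-extended double-stranded 36-bp intergenic genomic probes and negative controls.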"}
{"sequence": "AAACAGAATACATATACACACATACAAAAAAGTGCA [CACACA_site8235]", "gcPBM binding intensity (ln)": "9.31 ± 0.37"}
{"sequence": "ATTAAATATATGATGTGTACATATTCGTGTATGTTT [XGTACX_site2141]", "gcPBM binding intensity (ln)": "9.04 ± 0.4"}
{"sequence": "TATACATTTTTATAAAGTACACAAAAATAAATATAA [XGTACX_site1647]", "gcPBM binding intensity (ln)": "8.53 ± 0.41"}
{"sequence": "AATGCTATCTTCTTATTTTTCATACACAACATGAAC [CACACA_negctrl_site1809]", "gcPBM binding intensity (ln)": "8.99 ± 0.4"}
{"sequence": "TATAATATTTATATAACACACATATATATTTATTTA [CACACA_site280]", "gcPBM binding intensity (ln)": "8.64 ± 0.44"}
{"sequence": "AAAATAAATTTTTATGTTATATATACAATTTCTCTA [CACACA_negctrl_site1760]", "gcPBM binding intensity (ln)": "8.43 ± 0.45"}
{"sequence": "TATTTTTTTAAAAATACACACATAAAATCATGAAAA [CACACA_site1085]", "gcPBM binding intensity (ln)": "8.55 ± 0.47"}
{"sequence": "TTTTTTTATATTTTTAGTACACATTGGTATATATAT [XGTACX_site4114]", "gcPBM binding intensity (ln)": "8.86 ± 0.41"}
{"sequence": "ATATATATATGTCAAAGTACTAAAAATATATACATA [XGTACX_site3397]", "gcPBM binding intensity (ln)": "8.77 ± 0.44"}
{"sequence": "TTATGTTGTAAATACACACATACATATACATACACA [CACACA_site733]", "gcPBM binding intensity (ln)": "9.07 ± 0.3"}
{"sequence": "AATAAAATATAATAATTAATATATATATATATATAA [GTGCAC_negctrl_site457]", "gcPBM binding intensity (ln)": "8.65 ± 0.45"}
{"sequence": "TATGTGAAATAAGGATGTACAATTTTGATTTCCCCA [XGTACX_site8389]", "gcPBM binding intensity (ln)": "8.77 ± 0.39"}
{"sequence": "GTGTACAAAATATGGTAATAAAGTAGTTACATGAAT [CACACA_negctrl_site1775]", "gcPBM binding intensity (ln)": "9.08 ± 0.47"}
{"sequence": "CTAAATTGTTAATAGAGTACATTTGTATAATATAAG [XGTACX_site594]", "gcPBM binding intensity (ln)": "8.54 ± 0.49"}
{"sequence": "TTTTAATAATTTATAAAAAAAAAAAAAAAATAAATA [TGCATGCA_negctrl_site419]", "gcPBM binding intensity (ln)": "8.12 ± 0.5"}
{"sequence": "TTTAATGAAAGAAACACATACGTATCAAAATATATG [TGCATGCA_negctrl_site510]", "gcPBM binding intensity (ln)": "8.66 ± 0.47"}
{"sequence": "TACGTTGTATATTTTTGTACATATTGAATTACAAAA [XGTACX_site5906]", "gcPBM binding intensity (ln)": "8.52 ± 0.35"}
{"sequence": "TTCATATGGAATAAAAGTACGTATTAAAACAATTTT [XGTACX_site8742]", "gcPBM binding intensity (ln)": "8.63 ± 0.36"}
{"sequence": "GAACAATATATTTGCACACAAAAAATATATATTTAT [CACACA_site3317]", "gcPBM binding intensity (ln)": "9.24 ± 0.44"}
{"sequence": "GTTTACATCATTCTGGTGCAAAAAAAAAAAAAAATA", "gcPBM binding intensity (ln)": "8.47 ± 0.57"}
{"sequence": "GGATAAAAAATATGTACACACATATAGATATCTATA [CACACA_site2693]", "gcPBM binding intensity (ln)": "9.04 ± 0.38"}
{"sequence": "ATACAAGTATTAATTACACACTCAAAAAGAAAAAAC [CACACA_site5287]", "gcPBM binding intensity (ln)": "8.95 ± 0.48"}
{"sequence": "TAGATTTAAAAAAAAAAAAAATTTTTTTTTTTTTTT [TGCATGCA_negctrl_site593]", "gcPBM binding intensity (ln)": "8.06 ± 0.23"}
{"sequence": "GAATACTCATTTCTTTGTACATATATATGTGTATTT [XGTACX_site6411]", "gcPBM binding intensity (ln)": "9.11 ± 0.48"}
{"sequence": "AAAGCAAATAATAAGTGTACGGGTCAATATATGCGT [XGTACX_site1519]", "gcPBM binding intensity (ln)": "9.22 ± 0.47"}
{"sequence": "CATATAAACAATAACACACACCTAGGTACATGGAAA [CACACA_site4615]", "gcPBM binding intensity (ln)": "9.47 ± 0.28"}
{"sequence": "CTTTTTAATTTATCGACACACGCATGAATAGAAATT [CACACA_site9112]", "gcPBM binding intensity (ln)": "8.7 ± 0.4"}
{"sequence": "AAAAAAAAAAAAGAACGTACAAATTAATTTATAGAA [XGTACX_site5584]", "gcPBM binding intensity (ln)": "8.73 ± 0.57"}
{"sequence": "AATATTAAAATAAAAAGTACTTATTTATGTATGTTG [XGTACX_site2682]", "gcPBM binding intensity (ln)": "8.6 ± 0.46"}
{"sequence": "TGTATAATATTTGGTGCACACAAATTAACAACTGTT [CACACA_site9245]", "gcPBM binding intensity (ln)": "9.23 ± 0.41"}
{"sequence": "TTTATATAACAACAAAATGGAAATATATATGTATGT [TGCATGCA_negctrl_site98]", "gcPBM binding intensity (ln)": "8.68 ± 0.35"}
{"sequence": "TACACAAATATATACATACACACATATATACGCATA [CACACA_site394]", "gcPBM binding intensity (ln)": "9.27 ± 0.3"}
{"sequence": "TAATATTGACTATATACACACATATATATATATATA [CACACA_site575]", "gcPBM binding intensity (ln)": "9.54 ± 0.29"}
{"sequence": "CAGACATATTAAAAGAGTACATATATATATATATAT [XGTACX_site1158]", "gcPBM binding intensity (ln)": "9.98 ± 0.29"}
{"sequence": "TGTTTATTACTCAGGTGTACTCAATTTTTTTTTTTT [XGTACX_site3470]", "gcPBM binding intensity (ln)": "8.72 ± 0.47"}
{"sequence": "TATTTTTAAAATATAAGTAAAAAAATAATATAAACT [TGCATGCA_negctrl_site283]", "gcPBM binding intensity (ln)": "8.41 ± 0.49"}
{"sequence": "ATATATATATATATATGTACATATACATATGTGCAA [XGTACX_site5604]", "gcPBM binding intensity (ln)": "9.615 ± 0.05"}
{"sequence": "AAATGAATAAATAGGTCACACACAAATATATATAAA [CACACA_site8764]", "gcPBM binding intensity (ln)": "9.46 ± 0.54"}
{"sequence": "ATTTATTTTATTTTCACACACAAAAATAAATATCCG [CACACA_site2414]", "gcPBM binding intensity (ln)": "9.17 ± 0.45"}
{"sequence": "TAAATAATATCTATCACACACGCATAAATACAGATA [CACACA_site5449]", "gcPBM binding intensity (ln)": "9.22 ± 0.41"}
{"sequence": "ATAAAAAAAAAAAAAAGTACACATATAAAAGTATTG [XGTACX_site8265]", "gcPBM binding intensity (ln)": "8.72 ± 0.49"}
{"sequence": "TATAATGTATGTAGTGCACACCTCTATAATATATTA [CACACA_site8560]", "gcPBM binding intensity (ln)": "8.87 ± 0.4"}
{"sequence": "ATTCTACCACGCGATATACACACTTGTAGACATCTT [CACACA_site188]", "gcPBM binding intensity (ln)": "9.2 ± 0.35"}
